# Test results as given in PubChem BioAssay AID1508642 (National Center for Advancing Translational Sciences (NCATS), 2021).
# Screen size: about 43,000 compounds; about 200 (0.47%) were called active. Another 12% or so got no clear call; they are omitted. The call rests on the fitted dose curve; in most records, active means well fitted cell-killing curve with a large enough effect; inconclusive means small, poorly fitted or top-dose-only effect, or effect the other way; inactive means flat fitted curve, though single readings scatter. The list shows a part of the results.
# Assay: Cell viability qHTS assay in S16 Pmp22-F2sN cells; further: nearly all actives have a fitted effect of over 65% in size
# Conditions: S16 Pmp22-F2sN Schwann cells (luciferase reporters placed in the Pmp22 gene) viability, CellTiter-Glo, 24 h; series mostly up to 57.5 µM; activity change, negative = cytotoxicity: at the top concentration
# Summary of the method: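 CellTiter-Glo counter-screen, qHTS, 1536-well. Cells: S16(c9) Pmp22-F2sN, 500-1,000/well in DMEM + 10% FBS. Cpd 23 nL pin transfer, 24 h, 37C/5% CO2. Read: luminescence, CCD imager.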
# On the % scale 0 is the no-effect control and ±100 the full control effect.
row,Structure (SMILES),"activity change, negative = cytotoxicity"
1,Cc1ccc(CSc2cn(CCNC(=O)c3cccs3)c3ccccc23)cc1,inactive: 1.24%
2,Cc1ccc(N2CC(NC(=O)c3ccccc3Br)CC2=O)cc1 (configuration not stated),inactive: -1.77%
3,Cc1ccccc1Cn1c(=O)n(CCCCCC(=O)NCc2ccc3c(c2)OCO3)c(=O)c2sccc21,inactive: 13%
4,O=C(Cn1ncc2c3ccccc3n(Cc3cccc(Cl)c3)c2c1=O)NCCC1=CCCCC1,inactive: -3.38%
5,CCOc1ccc(C(=O)NCCc2sc(-c3ccc(F)cc3)nc2C)cc1,inactive: 3.13%
6,CCOC(=O)c1ccc(NC(=O)CN2C(=O)c3cccnc3Sc3ccccc32)cc1,inactive: -11.2%
7,COc1ccc(Nc2ncc(C(=O)N3CCN(c4ccccc4OC)CC3)c3ccccc23)cc1,inactive: -28.8%
8,CCOc1ccc(NC(=O)Nc2c[nH]c(=O)[nH]c2=O)cc1,inactive: 2.28%
9,Cn1c(SCc2ccccc2Cl)nc(=O)c2c1NC(=O)CC2c1cc(F)ccc1F (configuration not stated),inactive: -3.72%
10,CCN(CC)c1ccc(CNS(=O)(=O)c2cc3c(cc2C)NC(=O)CO3)cc1,inactive: -5.28%
11,COc1ccc(NC(=O)CSc2ncc3c(n2)-c2ccccc2N(C)S3(=O)=O)cc1Cl,inactive: 15.8%
12,CCCN1C(=O)c2oc3cc(C)cc(C)c3c(=O)c2C1c1ccc(F)cc1 (configuration not stated),inactive: 9.98%
13,CCN(CC)CCCNC(=O)CCc1c(C)nc2c(c1C)c(=O)n(C)c(=O)n2C,inactive: 3.94%
14,Cc1ccc(C)c(NC(=O)c2cnc3sc(N4CCOCC4)nn3c2=O)c1,inactive: -0.596%
15,COc1ccc(-c2cc(C(F)(F)F)nc(SCC(=O)Nc3ccc(O)cc3)n2)cc1OC,inactive: 7.69%
16,Cc1ccc(NC(=O)c2cccc(NC(=O)N3CCSc4ncccc43)c2)cc1F,inactive: 10.2%
17,CCOc1ccc(CNC(=O)c2ccc(NC(=O)N3CCSc4ncccc43)cc2)cc1,inactive: -3.64%
18,COc1ccc(-c2nc3cc(NC(=O)COc4ccc(C)c(C)c4)ccc3o2)cc1,inactive: 1.99%
19,Cc1cc(=O)c2cc(C(=O)Nc3cccc(C)c3C)ccc2[nH]1,inactive: -1.91%
20,O=C(Cn1ccc2cc(S(=O)(=O)N3CCCCCC3)ccc21)NCc1cccc(Cl)c1,inactive: 5.01%
21,CN(C)c1ccc(CNC(=O)CCCN2C(=O)CCn3nc(-c4cn(C)c5ccccc45)cc32)cc1,inactive: -19.1%
22,COCCn1c(C)cc(O)c(C(c2ccccc2Cl)N2CCCCC2)c1=O (configuration not stated),inactive: -8.65%
23,CCCNc1ncnc2c1c(-c1ccccc1)cn2-c1ccccc1,inactive: 0.408%
24,CCn1cc(C(=O)N2CCN(c3cccc(C)c3)C(C)C2)c(=O)c2cc(S(=O)(=O)N3CCOCC3)ccc21 (configuration not stated),inactive: 2.03%
25,COc1ccc(-c2nsc(NC(=O)c3oc4ccccc4c3C)n2)cc1,inactive: -6.97%
26,COc1ccc(C2=NN(CCC(=O)NCCc3ccccc3)C(=O)CC2)cc1,inactive: 1.29%
27,COCCn1c(C)cc(O)c(C(c2ccccc2F)N2CCN(c3ccccc3)CC2)c1=O (configuration not stated),inactive: 15.1%
